The labels stand for the following.
T1: UNK ZnF1-3 (human, UniProt Q9C0B0 31-174)
T1 sequence: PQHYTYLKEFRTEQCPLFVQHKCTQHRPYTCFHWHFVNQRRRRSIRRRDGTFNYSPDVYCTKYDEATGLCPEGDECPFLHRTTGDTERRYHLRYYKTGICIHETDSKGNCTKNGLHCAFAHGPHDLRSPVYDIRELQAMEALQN

B1: chr19:10058675:10058676:+_ENSMUSG00000024661_ENSMUST00000025563|mus_mus|FALSE|FALSE (ssRNA)
RNA: GGGAGUUCUACAGUCCGACGAUCUUGGUGGAGAAAGUAUUUGGCAAAGUUCUUCAGAGCCACAUCAUCUCGGUCAAAAUAACAAGACAUAGACAGAUAGACGUAGGAGGCAUACAACUCCAGGUUGAUCUGGCGGUUGAUGGCCAACAGAGGAUUGAGCAUCA
B2: chr18:90710673:90710674:+_ENSMUSG00000024614_ENSMUST00000025515|mus_hu|motif|central (ssRNA)
RNA: GGGAGUUCUACAGUCCGACGAUCGUUGCCUAAUAUAAAUUCUAAACUUAGCUAAAAUGAAGGCCUCAAAAAUAAUUUAUCGGCAAUAAACAUACCAAACUGUUACUUUAAAAAAAAGAGUUUUUAGACAUUGCUUUGGAAAGACAACAGAGGAUUGAGCAUCA
B3: chr4:45823916:45823917:-_ENSMUSG00000035551_ENSMUST00000044297|mus_mus|motif|central (ssRNA)
RNA: GGGAGUUCUACAGUCCGACGAUCGAUAGGGGUACAGGGACCCCCUCCCUUCAUAACACGCACCAAAUCAGAGCACCCACGGAGCAGUUACAGACACCAAGUCACGAGUCAGCUGGCCUGUGCCUUGUUUUGAGCCCUUUAGAACAACAGAGGAUUGAGCAUCA
B4: chr1:220276048:220276049:+_ENSG00000067704_ENST00000302637|hu_hu|hu_hu_hu_mus_True|28_48 (ssRNA)
RNA: GGGAGUUCUACAGUCCGACGAUCGCAAAUUGCCUGGUUGGCGGGAAUUGUCCAAGGCUGGGUGGUCCAAACUAAAACGCUAACAGGAGAUGAACCAUCUGUAAGAGAUGCCAAUUUCGGAGGAGGUCUCAGGAGGGGGAAUCUCAACAGAGGAUUGAGCAUCA
B5: chr20:33128396:33128397:+_ENSG00000125971_ENST00000357156|hu_mus|FALSE|FALSE (ssRNA)
RNA: GGGAGUUCUACAGUCCGACGAUCGACACAGGAAGCCCAGACAGUGGCUUAUUCAGUUGGAUUCUGGAUCACAAUCAGGAAAUAGUCUUUAUCUGGUGCCACCAUAAUUUCAUUUUUCUUGGAGCGAAUUCGAAGGAAGGUUAGCAACAGAGGAUUGAGCAUCA
B6: chr16:94664382:94664383:+_ENSMUSG00000040785_ENSMUST00000117648|mus_mus|motif|central (ssRNA)
RNA: GGGAGUUCUACAGUCCGACGAUCUCCUGGUAUGGACUUCACAUCCUCAGACAGUGCUUCAGACUUUACAUCUGGUUGAAAUUCCCGGGCAGUUGGAUUUAGUGGUAGUUUAACUCGUAAAUAUUCUCCUGUUUUUGAAAUGUCCAACAGAGGAUUGAGCAUCA
B7: chr19:16212804:16212805:+_ENSG00000167460_ENST00000300933|hu_mus|hu_hu_hu_mus_False|1_38 (ssRNA)
RNA: GGGAGUUCUACAGUCCGACGAUCAACAAUUCUGGAGUGAAGGAAAGAUGUAACAUGGAACAGCAUUAAAGCUCAGUCAGAAGGCACAUGGGCAACAAUGACUAUUUCAGCAUUCUCGCUUGGAAUGCUUAAAGACAGAUGUUUCAACAGAGGAUUGAGCAUCA
B8: 45022524_45023563_2369_3pUTR_ENSMUSG00000036097_ENSMUST00000096053|mouse|control|control (ssRNA)
RNA: GGGAGUUCUACAGUCCGACGAUCUGAUUGAAAAUUUUUCCAGAAUUGAGGAAAUUAAAUAUUUCUUCACCUGGAUGAUGAUCAGGAAUAGCAUCAACUGUAACUGAAAAUUUCUUUAGAAAUUCCCUGUGUUCUUCCAAGAGGCAACAGAGGAUUGAGCAUCA
B9: chr5:89070800:89070801:+_ENSMUSG00000029291_ENSMUST00000031229|mus_hu|FALSE|FALSE (ssRNA)
RNA: GGGAGUUCUACAGUCCGACGAUCUGAAGGAAUGAAGGCUUAUGUAAAGCCUGUCUCUUCAAAUCAAAAAUCAUCUUAAAAAAUCAAACUGUUUAUAGGAUUAUUUACAAUGUUAAAGCCUAGAAAGGGUUAGUCUGUGGUCACCAACAGAGGAUUGAGCAUCA
B10: 101967460_101969148_417_5pUTR_ENSG00000158301_ENST00000332262|human|control|control (ssRNA)
RNA: GGGAGUUCUACAGUCCGACGAUCGUGUCAAGCCCCACAGCUGACAGAAGGGGGUCCUCCAGAGCUGUGAGCCAGUCUCCUCCUCCUUGCCUUUCUUGCAGAAUUGGCCAGCCUUAAAGUAGGCCUUCAGAGGCCCAGGGCCCACAACAGAGGAUUGAGCAUCA
B11: chr2:32526493:32526494:+_ENSG00000119820_ENST00000437765|hu_hu|FALSE|FALSE (ssRNA)
RNA: GGGAGUUCUACAGUCCGACGAUCGAUCCAACCACCAAAAGUACAGGGGCUAUUACAAUGAGAGGAAGUAAUGAAUAUCCUAUAACUCCAAGGACUUGGCCAUAUGCAACUUCUCCACCAAGAACUCUGGCCAGUAAGAAAAUUCAACAGAGGAUUGAGCAUCA
B12: chr4:140556289:140556290:+_ENSMUSG00000036622_ENSMUST00000037055|mus_mus|mus_mus_mus_hu_False|8_38 (ssRNA)
RNA: GGGAGUUCUACAGUCCGACGAUCGAUGGAGCUCACCAGGCCCCCUUUUGCCGUGCAGAACCCUGUGCGGGUCACCACUGCCAGGACGUGCGGUCCCACGUAGGCUCGGGCCUGCAAGAUGAGGGUCCCACAGAAGAGUGUGUGCAACAGAGGAUUGAGCAUCA
B13: chr2:216986912:216986913:+_ENSG00000079246_ENST00000392132|hu_hu|motif|central (ssRNA)
RNA: GGGAGUUCUACAGUCCGACGAUCCAGUUUUCUCAGACUCUCACUGAAUGAAUAAAUUUCAUCCAACCCAUCUUCACCUUCGGAAGAUAUCAUCACCAUUUUCACUAUCUCAAGACCUUCUUUUUGCUGUUCGGUAAUUCCUUUCAACAGAGGAUUGAGCAUCA
B14: chr12:16048344:16048345:+_ENSG00000023734_ENST00000419869|hu_hu|hu_hu_hu_mus_True|1_78 (ssRNA)
RNA: GGGAGUUCUACAGUCCGACGAUCAGAUCGUCCAUAAGUAAUAACCAAAAUCUCUCCCUCAGGAAUAUACUCCAUGCUGCUAACAGACAUAUUAAAAUUCAGAGAUUUCACUUCUGUCAUUGUGGCAUGAUCCCAGAGUCGAACCAACAGAGGAUUGAGCAUCA

The other results are listed elsewhere or left out.

This test has as its target T1, UNK ZnF1-3. The experiment in a line: nsRBNS (natural sequence RNA bind-n-seq); RBNS binding buffer (assumed for nsRBNS): 25 mM Tris pH 7.5, 150 mM KCl, 3 mM MgCl2, 0.01% Triton X-100, 500 ug/ml BSA, 20 U/ml SUPERase-In, 4 C; UNK is unkempt and MSI1 is Musashi-1; names of the RNAs are library labels; protein concentration not given here; high values mean tight binding.
With B1, the binding signal was determined as 1.44 enrichment R.
The molecule B2 returned a binding signal of 1.55 enrichment R.
Take B3: the binding signal is 1.17 enrichment R.
Take B4: the binding signal amounted to 2.07 enrichment R.
B5: the binding signal came out at 1.14 enrichment R.
The molecule B6 gave a binding signal of 0.66 enrichment R.
On to B7, for which the binding signal is 1.23 enrichment R.
In turn, B8 returned a binding signal of 1.47 enrichment R.
In turn, B9 yielded a binding signal of 0.865 enrichment R.
Molecule B10 yielded a binding signal of 0.914 enrichment R.
As for B11, the figure is 1.74 enrichment R.
Regarding B12, the binding signal came to 1.15 enrichment R.
B13 showed a binding signal of 0.792 enrichment R.
As for B14, the figure is 1.1 enrichment R.
